# Reference: the supplement of paper PMC6451100
# The other results are listed elsewhere or left out. Read counts after selection give these values, which scatter widely.
# System: Drosophila AGO1 (endogenous, S2-R+ lysate)
# Assay: AGO1 loading enrichment factor (IP read count / input read count, not library-size normalised) (ratio); higher = more efficient loading into AGO1
# Settings: randomized region: 5' 5N of miR-317 loop
# Method: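 HISSA: 5'-phosphorylated, 32P-labelled 20-nt ssRNA oligos (miR-317 loop, first 5 nt randomized, constant 3' part TGAAATGCAAGCAAG as printed in methods; DNA letters for RNA) incubated 1 h at 25°C in S2-R+ cell lysate. Endogenous AGO1 was immunopurified with anti-AGO1 and bound oligos were sequenced after splinted ligation.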
# 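Also: S2-R+ lysate came from cells stably expressing FLAG-tagged AGO2, enrichment per 5N variant computed with FASTAptamer, reads lacking the constant 3′ segment discarded.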
row,Sequence,AGO1 loading enrichment factor
1,AAGTCTGAAATGCAAGCAAG,0.107
2,CTAGATGAAATGCAAGCAAG,0.0886
3,CAGATTGAAATGCAAGCAAG,0.0513
4,AAGCCTGAAATGCAAGCAAG,0.225
5,ACAGATGAAATGCAAGCAAG,0.139
6,TCTAGTGAAATGCAAGCAAG,0.317
7,CAATGTGAAATGCAAGCAAG,0.335
8,GGAGGTGAAATGCAAGCAAG,1.61
9,TAAGCTGAAATGCAAGCAAG,0.162
10,TCTGATGAAATGCAAGCAAG,0.378
11,AGTTATGAAATGCAAGCAAG,0.104
12,GAATTTGAAATGCAAGCAAG,0.121
13,ACGGCTGAAATGCAAGCAAG,0.164
14,GACCATGAAATGCAAGCAAG,0.45
15,AAGGCTGAAATGCAAGCAAG,0.0441
16,CACGCTGAAATGCAAGCAAG,0.024
17,TTCTGTGAAATGCAAGCAAG,0.18
18,ACAAGTGAAATGCAAGCAAG,0.214
19,GGAACTGAAATGCAAGCAAG,0.195
20,CCCACTGAAATGCAAGCAAG,0.123
21,GAGGTTGAAATGCAAGCAAG,0.554
22,CAAGATGAAATGCAAGCAAG,0.102

row,Sequence,AGO1 loading enrichment factor
1,TGTGGTGAAATGCAAGCAAG,0.197
2,AATACTGAAATGCAAGCAAG,0.278
3,GGCACTGAAATGCAAGCAAG,0.0816
4,ATACATGAAATGCAAGCAAG,0.183
5,CGGTATGAAATGCAAGCAAG,0.107
6,ATCGCTGAAATGCAAGCAAG,0.113
7,CATGTTGAAATGCAAGCAAG,0.0534
8,TTCCCTGAAATGCAAGCAAG,1.04
9,TAGACTGAAATGCAAGCAAG,0.453
10,ACAGTTGAAATGCAAGCAAG,0.165
11,CAGGGTGAAATGCAAGCAAG,0.453
12,GCATGTGAAATGCAAGCAAG,0.00702
13,GCAACTGAAATGCAAGCAAG,0.132
14,AGATGTGAAATGCAAGCAAG,0.158
15,GTAGTTGAAATGCAAGCAAG,0.0976
16,AATCATGAAATGCAAGCAAG,0.217
17,GATGGTGAAATGCAAGCAAG,0.535
18,ATGTATGAAATGCAAGCAAG,0.0838
19,GGGGCTGAAATGCAAGCAAG,0.209
20,GAGTATGAAATGCAAGCAAG,0.106
21,AACATTGAAATGCAAGCAAG,0.11
22,TGGTATGAAATGCAAGCAAG,0.128

row,Sequence,AGO1 loading enrichment factor
1,GTCCTTGAAATGCAAGCAAG,0.0491
2,TCAACTGAAATGCAAGCAAG,0.329
3,TGGATTGAAATGCAAGCAAG,0.122
4,GGTACTGAAATGCAAGCAAG,0.114
5,GTATGTGAAATGCAAGCAAG,0.0592
6,GATCATGAAATGCAAGCAAG,0.229
7,TGCGTTGAAATGCAAGCAAG,0.0532
8,GACTTTGAAATGCAAGCAAG,1.02
9,TTCGCTGAAATGCAAGCAAG,0.0254
10,ATTGTTGAAATGCAAGCAAG,0.313
11,TAAACTGAAATGCAAGCAAG,0.62
12,GGCTTTGAAATGCAAGCAAG,0.0676
13,AGAATTGAAATGCAAGCAAG,0.0994
14,CGCATTGAAATGCAAGCAAG,0.0252
15,GAACATGAAATGCAAGCAAG,0.0998
16,AAGGGTGAAATGCAAGCAAG,0.453
17,AATAATGAAATGCAAGCAAG,0.195
18,ACTAATGAAATGCAAGCAAG,0.2
19,TCAGCTGAAATGCAAGCAAG,0.0994
20,TCAGTTGAAATGCAAGCAAG,0.376
21,GCATATGAAATGCAAGCAAG,0.00913
22,CAAGTTGAAATGCAAGCAAG,0.0742

row,Sequence,AGO1 loading enrichment factor
1,GGAGTTGAAATGCAAGCAAG,0.404
2,TATTGTGAAATGCAAGCAAG,1.21
3,CATAATGAAATGCAAGCAAG,0.113
4,AAATCTGAAATGCAAGCAAG,0.122
5,GTTCGTGAAATGCAAGCAAG,0.0521
6,GGGTCTGAAATGCAAGCAAG,0.348
7,GAGTCTGAAATGCAAGCAAG,0.18
8,GGTGCTGAAATGCAAGCAAG,0.0776
9,AGTTGTGAAATGCAAGCAAG,0.0858
10,AAAATTGAAATGCAAGCAAG,0.153
11,TACGCTGAAATGCAAGCAAG,0.356
12,GGTCGTGAAATGCAAGCAAG,0.319
13,CCTAATGAAATGCAAGCAAG,0.0321
14,ACCTCTGAAATGCAAGCAAG,0.176
15,GACGTTGAAATGCAAGCAAG,13.3
16,GACATTGAAATGCAAGCAAG,3.29
17,GAGGCTGAAATGCAAGCAAG,0.0578
18,ACATCTGAAATGCAAGCAAG,0.137
19,AAACCTGAAATGCAAGCAAG,0.494
20,AACTCTGAAATGCAAGCAAG,0.267
21,ACCCCTGAAATGCAAGCAAG,0.0502
22,AAGGATGAAATGCAAGCAAG,0.271

row,Sequence,AGO1 loading enrichment factor
1,GGGGGTGAAATGCAAGCAAG,3
2,TTCAATGAAATGCAAGCAAG,1.06
3,TGTGCTGAAATGCAAGCAAG,0.0841
4,GCTTTTGAAATGCAAGCAAG,0.0318
5,TTGTTTGAAATGCAAGCAAG,0.172
6,CGGACTGAAATGCAAGCAAG,0.123
7,ATCTATGAAATGCAAGCAAG,0.152
8,GCGCGTGAAATGCAAGCAAG,0.642
9,CCACCTGAAATGCAAGCAAG,0.247
10,TCAAGTGAAATGCAAGCAAG,0.261
11,CCTGTTGAAATGCAAGCAAG,0.0193
12,CATTGTGAAATGCAAGCAAG,0.0401
13,GAAATTGAAATGCAAGCAAG,0.125
14,GGCGATGAAATGCAAGCAAG,3.21
15,AGAACTGAAATGCAAGCAAG,0.0996
16,GATTGTGAAATGCAAGCAAG,0.0417
17,CTGCCTGAAATGCAAGCAAG,0.122
18,GGTCATGAAATGCAAGCAAG,0.137
